The target in assay [1] is T1, Prostaglandin G/H synthase 2 (Homo sapiens, UniProt P35354).
T1 sequence (P35354 whole entry): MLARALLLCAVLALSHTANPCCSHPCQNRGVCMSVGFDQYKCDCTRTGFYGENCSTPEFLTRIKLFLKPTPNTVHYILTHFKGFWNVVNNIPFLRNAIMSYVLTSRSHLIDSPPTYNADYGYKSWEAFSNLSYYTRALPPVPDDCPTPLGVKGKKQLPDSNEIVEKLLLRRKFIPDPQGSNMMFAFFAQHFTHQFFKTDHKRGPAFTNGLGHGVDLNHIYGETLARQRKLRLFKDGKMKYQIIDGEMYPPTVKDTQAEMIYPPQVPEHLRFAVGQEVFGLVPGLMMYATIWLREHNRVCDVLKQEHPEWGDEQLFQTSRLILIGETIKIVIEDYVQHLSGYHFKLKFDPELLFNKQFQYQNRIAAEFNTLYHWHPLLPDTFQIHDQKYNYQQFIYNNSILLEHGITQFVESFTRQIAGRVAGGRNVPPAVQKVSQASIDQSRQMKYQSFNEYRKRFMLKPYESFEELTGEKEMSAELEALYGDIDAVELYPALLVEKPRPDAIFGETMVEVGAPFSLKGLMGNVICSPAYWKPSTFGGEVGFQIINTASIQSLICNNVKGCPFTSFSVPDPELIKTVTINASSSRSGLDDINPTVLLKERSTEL

Assay [2] deals with T1, Prostaglandin G/H synthase 2. This is another data set of the same source.

Structures are written as SMILES.

The values that follow come from ChEMBL document CHEMBL1130038, “1,2-Diarylpyrroles as potent and selective inhibitors of cyclooxygenase-2” (J Med Chem, 1997).

Broadly, the IC50 is the concentration needed to halve the response being measured. A lower IC50 goes with greater potency. Consider `CS(=O)(=O)c1cccc(-n2cccc2-c2ccc(F)cc2)c1`, for which, in assay [1], the IC50 was > 100 µM.
Take `Cc1ccc(-c2ccc(S(C)(=O)=O)cc2)n1Cc1ccc(F)cc1`: the IC50 in assay [1] is > 100 µM.
Turning to `Cc1ccc(-c2ccc(F)cc2)n1-c1ccc(S(C)(=O)=O)cc1`, the IC50 in assay [1] is > 100 µM.
Still for that read-out and setting: in the case of `CCCCn1c(C)ccc1-c1ccc(S(C)(=O)=O)cc1` it was > 100 µM; in that of `CS(=O)(=O)c1ccc(-c2ccc(CCC(=O)O)n2-c2ccc(F)cc2)cc1`, > 100 µM.
On the same count and under the same terms, in the case of `CNS(=O)(=O)c1ccc(-n2cccc2-c2ccc(F)cc2)cc1` it was > 100 µM; in that of `O=S(=O)(c1ccccc1)c1ccc(-n2cccc2-c2ccc(F)cc2)cc1`, > 100 µM.
For the compound `CCS(=O)(=O)c1ccc(-n2cccc2-c2ccc(F)cc2)cc1`, the IC50 in assay [1] was > 100 µM.
The same measure, in the same setting: the result for `Cc1c(CN(C)C)cc(-c2ccc(S(C)(=O)=O)cc2)n1-c1ccc(F)cc1` reads 100 µM; that for `Cc1c(C(Oc2cccc(Cl)c2)C(F)(F)F)cc(-c2ccc(S(C)(=O)=O)cc2)n1-c1ccc(F)cc1` (configuration not stated), > 100 µM.
Turning to `COc1ccc(-c2ccc(CCC(=O)O)n2-c2ccc(C(C)=O)cc2)cc1`, the IC50 in assay [1] was 4.6 µM; in assay [2], 2.4 µM.
On to `Cc1c(COc2cccc(Cl)c2)cc(-c2ccc(S(C)(=O)=O)cc2)n1-c1ccc(F)cc1`, for which inhibition in assay [1] was half-maximal at 0.08 µM (IC50).
Same read-out and setting: in the case of `CN(C)S(=O)(=O)c1ccc(-n2c(CCC(=O)O)ccc2-c2ccc(F)cc2)cc1` it was 7.5 µM.
Same read-out and setting: in the case of `Cc1ccc(-c2ccc(S(C)(=O)=O)cc2)n1C(C)C` it was > 100 µM; in that of `Cc1ccc(-c2ccc(S(C)(=O)=O)cc2)[nH]1`, > 100 µM.
Still for that read-out and setting: the result for `Cc1c(COc2ccc(Cl)cc2)cc(-c2ccc(S(C)(=O)=O)cc2)n1-c1ccc(F)cc1` reads 0.03 µM; that for `CCc1ccc(-c2ccc(S(C)(=O)=O)cc2)n1-c1ccc(F)cc1`, > 100 µM.
The compound `Cc1c(S(=O)(=O)C(F)(F)F)cc(-c2ccc(S(C)(=O)=O)cc2)n1-c1ccc(F)cc1` gave an IC50 in assay [1] of 0.06 µM.
For the compound `CS(=O)(=O)c1ccc(-n2cccc2-c2ccc(F)cc2)cc1Cl`, in assay [1], the IC50 was > 100 µM.
For the compound `CN(C)S(=O)(=O)c1ccc(-n2cccc2-c2ccc(F)cc2)cc1`, in assay [1], the 50% inhibitory concentration (IC50) was > 100 µM.
As for `CS(=O)(=O)c1ccc(-c2ccc(C(F)(F)F)n2-c2ccc(F)cc2)cc1`, the IC50 in assay [1] is > 100 µM.
